The whole screen tested about 200,000 compounds, of which about 560 (0.28%) were called active. Inconclusive results, whose numbers are uncertain, are shown with a selection of clear calls. The call rests on the fitted dose curve; in most records, active means well fitted inhibition curve with a large enough effect; inconclusive means small, poorly fitted or top-dose-only effect; inactive means flat fitted curve, though single readings scatter. No potency is given beside an inconclusive call; the fits are too rough. A structure can be active in one record and inactive in another.
Target: Luciferin 4-monooxygenase (Photuris pensylvanica) (UniProt Q27757)
Assay: Counterscreen for Luciferase (Kinase-Glo TM) Inhibition; further: nearly all actives have a fitted effect of over 60% in size
Conditions: ATP luminescence, 8 min; series mostly up to 38.3 µM; activity change, negative = inhibition: at the top concentration
In short: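 Light output from Kinase-Glo luciferase with luciferin and 10 uM ATP in 50 mM imidazole pH 7.2, KCl, MgCl2, Tween 20, BSA; compound pin-delivered, 8-min ambient incubation, then luminescence read.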
On the % scale 0 is the no-effect control and ±100 the full control effect; potency means the concentration at half of the fitted maximal effect; tags describe the fitted curve by direction and shape.

Structure (SMILES)	Potency	activity change, negative = inhibition
Cc1cc(=O)n2[nH]c(-c3ccc(F)cc3)nc2n1	inconclusive [inhibitor, partial curve]	–
O=C(Nc1cnc2sccn2c1=O)c1ccccc1Cl	inconclusive [inhibitor, single point]	–
COC(=O)c1sccc1NC(=O)/C=C/c1ccc(Cl)cc1	inconclusive [inhibitor, single point]	–
Clc1ccccc1-c1nnc(-c2ccc3c(c2)OCO3)o1	inconclusive [inhibitor, partial curve]	–
Cc1nc2ccc(-c3nc4ccccc4[nH]3)cc2[nH]1	inconclusive [inhibitor, partial curve]	–
Nc1ncnc2c1ncn2[C@@H]1O[C@H](COP(=O)(O)OP(=O)(O)O)[C@@H](O)[C@H]1O	active: 5.01 µM	–
CN(C)c1ccc(/C=C/c2ccc3c4ccccc4ccc3[n+]2-c2ccccc2)cc1	active: 10 µM	–
c1ccc(OCc2nc(-c3ccncc3)no2)cc1	–	inactive: -1.46%
COc1ccc(/C=C/C(=O)C2C(=O)C=C(C)OC2=O)cc1O (configuration not stated)	inconclusive [inhibitor, single point]	–
CCOC(=O)Cn1nnc(-c2ccc([N+](=O)[O-])cc2)n1	–	inactive: -1.27%
Cc1ccc(NC(=O)Nc2ccccc2)cc1[N+](=O)[O-]	–	inactive: -4.31%
Cc1ncoc1C(=O)Nc1ncc([N+](=O)[O-])s1	active: 11.2 µM	–
O=C(Nc1ncnc2c1ncn2C1OC(COC(=O)c2ccccc2)C(F)C1O)c1ccccc1 (configuration not stated)	–	inactive: -1.79%
Cc1cccc(-n2cc(CN3CCCN(C=O)CC3)c(-c3cccc(F)c3)n2)c1	–	inactive: -1.74%
O=C(Nc1ccc2c(c1)OCCO2)c1coc2ccccc2c1=O	active: 8.91 µM	–
O=C(CC1Nc2ccccc2NC1=O)c1ccccc1 (configuration not stated)	inconclusive [inhibitor, single point]	–
O=C(N/N=C/c1ccsc1)c1ccccn1	inconclusive [inhibitor, partial curve]	–
COC(=O)c1cccc(NC(=O)c2onc3c2CCCC3)c1	inconclusive [inhibitor, single point]	–
CCOc1ccc(N=Nc2c(=O)[nH]n3c(=O)cc(C)[nH]c23)cc1	inconclusive [inhibitor, partial curve]	–
Oc1ccc(C2=Nn3c(nnc3-c3ccco3)SC2)cc1O	–	inactive: 7.62%
COC(=O)c1sc(NC(=O)c2ccco2)nc1C	inconclusive [inhibitor, partial curve]	–
Cc1ccc(/C=N/NC(=O)c2nn(C)cc2Cl)cc1	inconclusive [inhibitor, single point]	–
Cc1cc(N)n2nc(-c3ccccc3)cc2n1	active: 12.6 µM	–
Cc1cc(NC(=O)c2ccc([N+](=O)[O-])o2)ccc1NC(=O)c1ccco1	inconclusive [inhibitor, partial curve]	–
CCOC(=O)N1CCN(c2nc(C(F)(F)F)nc3c(C)cc(C)cc23)CC1	–	inactive: -1.72%
COc1ccc(C(=O)Nc2cc(C(C)=O)c(C)oc2=O)cc1	inconclusive [inhibitor, partial curve]	–

Structure (SMILES)	Potency	activity change, negative = inhibition
CC(=O)c1cc2c(=O)c3cc(C)ccc3oc2nc1C	inconclusive [inhibitor, single point]	–
Cc1ccsc1/C=N/Nc1nc2ccccc2s1	inconclusive [inhibitor, single point]	–
COc1ccc(N2CCN(C(=O)Nc3cccc(C(F)(F)F)c3)CC2)cc1	–	inactive: -5.33%
COc1ccccc1NC(=S)NNC(=O)c1ccc(Cl)cc1Cl	–	inactive: 0.837%
N#CC1=C(N)N(c2ccc(F)cc2)C2=C(C1c1ccc(O)cc1)S(=O)(=O)CC2 (configuration not stated)	inconclusive [inhibitor, partial curve]	–
O=C1C(C2=C(O)c3ccccc3C2=O)=Nc2ccccc21	active: 11.2 µM	–
Oc1ccc(/C=N/Nc2nccnc2Cl)c(O)c1	active: 3.55 µM	–
O=C(c1ccccc1)c1nnc(-c2ccncc2)o1	inconclusive [inhibitor, single point]	–
CN(C)C(=O)c1ccc(NC(=O)c2cccnc2)cc1	inconclusive [inhibitor, single point]	–
COc1ccc(C(=O)N2CCC3(CC2)CN(c2ccccc2)C3)cc1	–	inactive: -1.51%
Cc1ncc(CO)c(/C=N/NC(=O)c2cc(Br)ccc2O)c1O	–	inactive: 1.11%
COc1ccc(NC(=O)N2CCc3ccccc32)cc1	inconclusive [inhibitor, partial curve]	–
CCSc1nnc(NC(=O)c2ccccc2C)s1	–	inactive: -7.34%
Cc1cc(C(=O)Nc2nc3ccc(S(C)(=O)=O)cc3s2)c(C)o1	inconclusive [inhibitor, partial curve]	–
O=C(O)c1ccc(S(=O)(=O)N(Cl)Cl)cc1	–	inactive: -1.86%
O=Nc1c2cc(-c3ccccc3)[nH]nc-2c2ccccc12	active: 2.24 µM	–
Clc1ccc(-c2cn3cccnc3n2)cc1	–	inactive: -7.57%
Cc1c(C(=O)O)c(O)cc2c1C(=O)c1c(O)c([C@H]3O[C@H](CO)[C@@H](O)[C@H](O)[C@H]3O)c(O)c(O)c1C2=O	active: 12.6 µM	–
COc1ccc2nc(-c3ccccc3)[nH]c2c1	inconclusive [inhibitor, partial curve]	–
N/C(=N\OC(=O)c1ccc(F)cc1)c1ccccc1	active: 8.91 µM	–
C=CC[n+]1ccc(/C=C2\C=Cc3cc(C)ccc3N2CC)c2ccccc21	inconclusive [inhibitor, single point]	–
COc1ccc(C(=O)Nc2ccc(N3CCOCC3)cc2)cc1OC	inconclusive [inhibitor, single point]	–
CSc1nnc(-c2ccccc2)o1	–	inactive: 9.65%
Cc1ccccc1C(=O)Nc1ccc(N2CCCC2)cc1	inconclusive [inhibitor, partial curve]	–
COC(=O)c1sc(NC(=O)c2ccoc2C)nc1C	active: 7.94 µM	–
COc1cc(N/N=C/c2ccc(N(C)C)cc2)ncn1	inconclusive [inhibitor, single point]	–
